# Reference: the supplement of paper PMC8728848
# The other results are listed elsewhere or left out.
# Key:
# Assay in all cases: glycan array binding signal (z-score within array); higher = stronger binding
# Details in all cases: glycan notation: IUPAC condensed, linker removed
# [1] = molecular target: GlcNAc(b1-3)GalNAc
# Summary of the method: (§1)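 From the Consortium for Functional Glycomics database, 3228 arrays were curated, keeping only those whose protein sequence was available. Binding is given as a within-array Z-score averaged across arrays sharing a protein sequence and across linkers. Negative Z-scores can be read as non-binding.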
# [2] = molecular target: GlcNAc(b1-3)[GlcNAc(b1-4)][GlcNAc(b1-6)]GlcNAc
# Summary of the method: as §1
# [3] = molecular target: GlcNAc(b1-3)[GlcNAc(b1-6)]Gal(b1-4)GlcNAc
# Summary of the method: as §1
# [4] = molecular target: GlcNAc(b1-3)[GlcNAc(b1-6)]GlcNAc
# Summary of the method: as §1
# [5] = molecular target: GlcNAc(b1-4)Gal(b1-4)GlcNAc
# Summary of the method: as §1
# [6] = molecular target: GlcNAc(b1-4)GlcNAc(b1-4)GlcNAc
# Summary of the method: as §1
# [7] = molecular target: GlcNAc(b1-4)GlcNAc(b1-4)GlcNAc(b1-4)GlcNAc(b1-4)GlcNAc
# Summary of the method: as §1
# [8] = molecular target: GlcNAc(b1-4)GlcNAc(b1-4)GlcNAc(b1-4)GlcNAc(b1-4)GlcNAc(b1-4)GlcNAc
# Summary of the method: as §1
# [9] = molecular target: GlcNAc(b1-4)[GlcNAc(b1-6)]GalNAc
# Summary of the method: as §1
# [10] = molecular target: GlcNAc(b1-6)Gal(b1-4)GlcNAc
# Summary of the method: as §1
# [11] = molecular target: GlcNAc(b1-6)GalNAc
# Summary of the method: as §1
# [12] = molecular target: Kdn(a2-3)Gal(b1-3)GlcNAc
# Summary of the method: as §1
# [13] = molecular target: Kdn(a2-3)Gal(b1-4)GlcNAc
# Summary of the method: as §1
# [14] = molecular target: Man(a1-2)Man(a1-2)Man(a1-3)Man
# Summary of the method: as §1
# [15] = molecular target: Man(a1-2)Man(a1-2)Man(a1-3)[Man(a1-2)Man(a1-3)[Man(a1-2)Man(a1-6)]Man(a1-6)]Man(b1-4)GlcNAc(b1-4)GlcNAc
# Summary of the method: as §1
# [16] = molecular target: Man(a1-2)Man(a1-2)Man(a1-3)[Man(a1-2)Man(a1-6)[Man(a1-3)]Man(a1-6)]Man(b1-4)GlcNAc(b1-4)GlcNAc
# Summary of the method: as §1
# [17] = molecular target: Man(a1-2)Man(a1-2)Man(a1-6)[Man(a1-3)]Man
# Summary of the method: as §1
# [18] = molecular target: Man(a1-2)Man(a1-3)Man
# Summary of the method: as §1
# [19] = molecular target: Man(a1-2)Man(a1-3)[Man(a1-2)Man(a1-6)]Man
# Summary of the method: as §1
# [20] = molecular target: Man(a1-2)Man(a1-3)[Man(a1-3)[Man(a1-6)]Man(a1-6)]Man(b1-4)GlcNAc(b1-4)GlcNAc
# Summary of the method: as §1
# [21] = molecular target: Man(a1-2)Man(a1-3)[Man(a1-6)]Man(a1-6)[Man(a1-2)Man(a1-3)]Man(b1-4)GlcNAc(b1-4)GlcNAc
# Summary of the method: as §1
# [22] = molecular target: Man(a1-3)[Man(a1-6)]Man
# Summary of the method: as §1
# [23] = molecular target: Man(a1-3)[Man(a1-6)]Man(a1-6)[Man(a1-3)]Man(b1-4)GlcNAc(b1-4)GlcNAc
# Summary of the method: as §1
# [24] = molecular target: Man(a1-3)[Man(a1-6)]Man(b1-4)GlcNAc(b1-4)GlcNAc
# Summary of the method: as §1
# [25] = molecular target: Man(b1-4)GlcNAc
# Summary of the method: as §1
# [26] = molecular target: Neu5Ac(a2-3)Gal
# Summary of the method: as §1
# [27] = molecular target: Neu5Ac(a2-3)Gal(b1-3)GalNAc
# Summary of the method: as §1
# [28] = molecular target: Neu5Ac(a2-3)Gal(b1-3)GalNAc(b1-3)Gal(a1-4)Gal(b1-4)Glc
# Summary of the method: as §1
# [29] = molecular target: Neu5Ac(a2-3)Gal(b1-3)GalNAc(b1-4)[Neu5Ac(a2-3)]Gal(b1-4)Glc
# Summary of the method: as §1
# [30] = molecular target: Neu5Ac(a2-3)Gal(b1-3)GalNAc6S
# Summary of the method: as §1
# [31] = molecular target: Neu5Ac(a2-3)Gal(b1-3)GlcNAc
# Summary of the method: as §1
# [32] = molecular target: Neu5Ac(a2-3)Gal(b1-3)GlcNAc(b1-3)Gal(b1-4)GlcNAc
# Summary of the method: as §1
# [33] = molecular target: Neu5Ac(a2-3)Gal(b1-3)GlcNAc6S
# Summary of the method: as §1
# [34] = molecular target: Neu5Ac(a2-3)Gal(b1-3)[Fuc(a1-4)]GlcNAc
# Summary of the method: as §1
# [35] = molecular target: Neu5Ac(a2-3)Gal(b1-3)[Fuc(a1-4)]GlcNAc(b1-3)Gal(b1-4)[Fuc(a1-3)]GlcNAc
# Summary of the method: as §1
# [36] = molecular target: Neu5Ac(a2-3)Gal(b1-3)[Neu5Ac(a2-3)Gal(b1-4)]GlcNAc
# Summary of the method: as §1
# [37] = molecular target: Neu5Ac(a2-3)Gal(b1-3)[Neu5Ac(a2-6)]GalNAc
# Summary of the method: as §1
# [38] = molecular target: Neu5Ac(a2-3)Gal(b1-4)Glc
# Summary of the method: as §1
binder,measurement,setting,value
RNase 1 (Homo sapiens) (protein) KESRAKKFQRQHMDSDSSPSSSSTYCNQMMRRRNMTQGRCKPVNTFVHEPLVDVQNVCFQEKVTCKNGQGNCYKSNSSMHITDCRLTNGSRYPNCAYRTSPKERHIIVACEGSPYVPVHFDASVEDST,glycan array binding signal (z-score),[1],-0.251
same,glycan array binding signal (z-score),[2],-0.069
same,glycan array binding signal (z-score),[3],-0.22
same,glycan array binding signal (z-score),[4],-0.116
same,glycan array binding signal (z-score),[5],-0.174
same,glycan array binding signal (z-score),[6],-0.038
same,glycan array binding signal (z-score),[7],-0.028
same,glycan array binding signal (z-score),[8],-0.15
same,glycan array binding signal (z-score),[9],-0.122
same,glycan array binding signal (z-score),[10],-0.165
same,glycan array binding signal (z-score),[11],-0.213
same,glycan array binding signal (z-score),[12],-0.162
same,glycan array binding signal (z-score),[13],-0.237
same,glycan array binding signal (z-score),[14],-0.204
same,glycan array binding signal (z-score),[15],-0.208
same,glycan array binding signal (z-score),[16],-0.153
same,glycan array binding signal (z-score),[17],-0.001
same,glycan array binding signal (z-score),[18],-0.174
same,glycan array binding signal (z-score),[19],-0.205
same,glycan array binding signal (z-score),[20],-0.216
same,glycan array binding signal (z-score),[21],-0.132
same,glycan array binding signal (z-score),[22],-0.147
same,glycan array binding signal (z-score),[23],-0.171
same,glycan array binding signal (z-score),[24],-0.179
same,glycan array binding signal (z-score),[25],-0.209
same,glycan array binding signal (z-score),[26],-0.215
same,glycan array binding signal (z-score),[27],-0.23
same,glycan array binding signal (z-score),[28],0.615
same,glycan array binding signal (z-score),[29],-0.179
same,glycan array binding signal (z-score),[30],-0.195
same,glycan array binding signal (z-score),[31],-0.174
same,glycan array binding signal (z-score),[32],-0.164
same,glycan array binding signal (z-score),[33],-0.204
same,glycan array binding signal (z-score),[34],-0.235
same,glycan array binding signal (z-score),[35],0.048
same,glycan array binding signal (z-score),[36],0.146
same,glycan array binding signal (z-score),[37],-0.21
same,glycan array binding signal (z-score),[38],-0.225
